# Results: PubChem BioAssay AID1347165 (National Center for Advancing Translational Sciences (NCATS), 2019)
# Among all 220,000 compounds or so, about 5,700 (2.6%) were called active. The shares of active, inactive and inconclusive entries below differ from those in the screen. Calls follow the shape of the dose curve; as a rule, active = well fitted inhibition curve with a large enough effect; inconclusive = small, poorly fitted or top-dose-only effect; inactive = no such curve, though single readings can be large or run the other way. Where the call is inconclusive, the potency comes from a doubtful curve fit.
# Molecular target: Lysine-specific demethylase 5B (Homo sapiens) (UniProt Q9UGL1)
# Experiment: Primary screen for KDM5B Histone Demethylases FDH-coupled qHTS; also: nearly all actives have a fitted effect of over 70% in size
# Details: FDH-coupled NADH fluorescence (FDH is formaldehyde dehydrogenase); series mostly up to 57.7 µM
# Summary of the method: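 Inhibition is measured as reduced NADH fluorescence generation from FDH coupling to formaldehyde release. Truncated KDM5BΔAP at 200 nM final acts on H3K4me3 peptide (12.5 µM in substrate mix) in pH 7.5 HEPES buffer with Tween-20, 30 min, room temperature.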
# Potency is read from the fitted curve at half-maximal effect; tags tell the direction and shape of the fitted curve.
# Sequence of UniProt Q9UGL1 (Q9UGL1 whole entry, looked up): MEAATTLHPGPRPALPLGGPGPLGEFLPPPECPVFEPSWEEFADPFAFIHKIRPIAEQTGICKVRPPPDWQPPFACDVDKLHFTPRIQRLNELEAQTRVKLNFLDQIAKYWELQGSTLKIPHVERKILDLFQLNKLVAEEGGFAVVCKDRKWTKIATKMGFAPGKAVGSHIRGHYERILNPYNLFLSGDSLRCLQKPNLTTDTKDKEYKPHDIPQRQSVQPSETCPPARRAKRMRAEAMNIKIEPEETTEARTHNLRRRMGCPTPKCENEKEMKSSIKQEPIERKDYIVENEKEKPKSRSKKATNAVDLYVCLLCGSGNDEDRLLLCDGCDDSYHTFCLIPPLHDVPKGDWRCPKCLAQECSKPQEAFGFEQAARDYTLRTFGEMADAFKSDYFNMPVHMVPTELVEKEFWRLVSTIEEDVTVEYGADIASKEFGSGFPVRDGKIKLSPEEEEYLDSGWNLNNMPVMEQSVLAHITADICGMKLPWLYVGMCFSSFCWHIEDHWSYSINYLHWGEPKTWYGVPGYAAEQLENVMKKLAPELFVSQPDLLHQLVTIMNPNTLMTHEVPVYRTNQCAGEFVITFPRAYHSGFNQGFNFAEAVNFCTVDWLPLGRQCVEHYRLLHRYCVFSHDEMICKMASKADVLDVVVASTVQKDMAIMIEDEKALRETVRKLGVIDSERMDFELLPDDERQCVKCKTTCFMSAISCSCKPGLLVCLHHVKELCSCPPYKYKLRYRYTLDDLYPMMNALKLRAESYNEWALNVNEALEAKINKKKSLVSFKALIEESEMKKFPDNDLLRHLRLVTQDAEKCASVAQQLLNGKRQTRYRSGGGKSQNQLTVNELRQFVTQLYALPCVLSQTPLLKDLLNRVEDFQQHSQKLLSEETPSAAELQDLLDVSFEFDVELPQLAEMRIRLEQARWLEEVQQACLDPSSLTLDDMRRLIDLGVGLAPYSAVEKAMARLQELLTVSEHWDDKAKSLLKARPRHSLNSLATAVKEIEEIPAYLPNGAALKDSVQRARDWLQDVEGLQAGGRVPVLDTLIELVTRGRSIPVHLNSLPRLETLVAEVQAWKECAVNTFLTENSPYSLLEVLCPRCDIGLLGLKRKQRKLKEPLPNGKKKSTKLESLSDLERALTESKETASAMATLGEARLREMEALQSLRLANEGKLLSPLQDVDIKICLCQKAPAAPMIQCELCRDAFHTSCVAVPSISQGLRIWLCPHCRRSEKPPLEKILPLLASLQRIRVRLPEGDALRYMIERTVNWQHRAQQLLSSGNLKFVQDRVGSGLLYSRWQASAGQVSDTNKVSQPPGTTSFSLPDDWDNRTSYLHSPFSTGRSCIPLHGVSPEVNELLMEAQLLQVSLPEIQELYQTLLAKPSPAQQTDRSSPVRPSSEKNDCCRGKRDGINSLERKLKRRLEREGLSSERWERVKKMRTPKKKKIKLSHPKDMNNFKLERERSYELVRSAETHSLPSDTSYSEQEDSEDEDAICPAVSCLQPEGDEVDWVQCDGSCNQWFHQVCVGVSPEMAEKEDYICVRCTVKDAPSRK
row,SMILES,Potency
1,Cc1oc2cc(OCC(=O)Nc3nccs3)ccc2c(=O)c1-c1ccc(Cl)cc1,inactive
2,Cc1ccc(NC(=O)CC2Nc3ccccc3NC2=O)cc1C (stereo unspecified),"inconclusive: 11.2 µM [inhibitor, partial curve, poor fit]"
3,CCCCCCCCOc1ccc(/C=C(/C#N)c2nc3ccccc3[nH]2)cc1,inactive
4,COc1ccc(C)cc1NC(=O)N1CCN(C)C2(CCC(=O)N(C)CC2)C1 (stereo unspecified),inactive
5,Cn1nc(C(=O)N2CCc3nc4cc[nH]n4c(=O)c3C2)c2ccccc21,active: 31.6 µM
6,CCC12CN3CC(CC)(CN(C1)C(=O)c1ccccc1C3=O)C2=O,inactive
7,COc1ccc2[nH]c(C(=O)NCCc3ccccc3)cc2c1,"inconclusive: 17.8 µM [inhibitor, single point]"
8,Cc1cccc(CNC(=O)Cn2ccc3cc(S(=O)(=O)N4CCCCCC4)ccc32)c1,"inconclusive: 15.8 µM [inhibitor, partial curve, poor fit]"
9,O=C(NCc1ccccc1)c1ccc2cc[nH]c2c1,"inconclusive: 22.4 µM [inhibitor, partial curve, poor fit]"
10,O=c1oc2ccccc2c(N2CCN(c3ccccc3F)CC2)c1CN1CCCC1,"inconclusive: 28.2 µM [inhibitor, single point]"
11,CN1CC(=O)N(C2CCNC2)Cc2c(NCC3CC3)ncnc21 (stereo unspecified),active: 89.1 µM
12,O=C(COc1ccc(Cl)cc1Cl)Nc1ccc2c(c1)CCN2C(=O)c1cccnc1,"inconclusive: 39.8 µM [inhibitor, single point]"
13,CNC(=O)c1cc(=O)n(CC(=O)Nc2ccc(C(C)=O)cc2)c2ccccc12,"inconclusive: 28.2 µM [inhibitor, single point]"
14,COc1ccc(-c2cc(-c3ccc4c(c3)CNC4=O)cn3cncc23)cc1,active: 22.4 µM
15,COCCCNC(=O)c1nn(-c2ccc(C)cc2)nc1CO,"inconclusive: 28.2 µM [inhibitor, partial curve, poor fit]"
16,CCN1CCC2(CCC1=O)CN(Cc1nc(CCOC)no1)CCN2C (stereo unspecified),inactive
17,COc1ccc2c(Sc3ccc(C)cc3)c(C(=O)NC(C)C)[nH]c2c1,inactive
18,CC1(C)CNC(=O)c2nc(-c3ccccc3-n3cncn3)[nH]c2C1,"inconclusive: 17.8 µM [inhibitor, partial curve, poor fit]"
19,Cc1cc(C(=O)N2CCC(F)CC2)c2c(C3CCNC3)noc2n1 (stereo unspecified),"inconclusive: 100 µM [inhibitor, partial curve, poor fit]"
20,COc1ccc(-c2nnc([C@H]3CCN(CC4CCCCC4)C3)o2)cc1,"inconclusive: 39.8 µM [inhibitor, partial curve, poor fit]"
21,CCCCCCCn1c(SCC(N)=O)nc2c1c(=O)[nH]c(=O)n2C,inactive
22,COc1ccc2c(c1)CCc1c(C(=O)Nc3c(C)nn(Cc4ccccc4)c3C)noc1-2,"inconclusive: 25.1 µM [inhibitor, partial curve, poor fit]"
23,O=C(Cc1cccn1-c1ccc(Cl)cc1)N1CCCC1,"inconclusive: 17.8 µM [inhibitor, single point]"

row,SMILES,Potency
1,CCN(C(=O)CN(C)S(=O)(=O)c1cc2c(cc1C)NC(=O)C(C)O2)c1ccc(OC)cc1 (stereo unspecified),inactive
2,CCN(CC)C(=O)C1CCN(S(=O)(=O)c2c(C)noc2/C=C/c2cccc(OC)c2)CC1,"inconclusive: 35.5 µM [inhibitor, partial curve, poor fit]"
3,CCOc1ccc(C(=O)CC2(O)C(=O)Nc3ccc(CC)cc32)cc1 (stereo unspecified),inactive
4,CCn1ccc(C(=O)N2CCC(c3nn(C)c4c3COCC4)CC2)n1,inactive
5,O=C1NCCN2CC3(CCN(C(=O)NCc4ccccc4)CC3)CC12 (stereo unspecified),"inconclusive: 12.6 µM [inhibitor, single point]"
6,COC(=O)C(C#N)c1nc2ccccc2nc1Cl (stereo unspecified),"inconclusive: 39.8 µM [inhibitor, single point]"
7,Cc1ccc(Nc2c(C(C)C)c(C)c(C#N)c3nc4ccccc4n23)cc1,"inconclusive: 39.8 µM [inhibitor, single point]"
8,Cc1nc(SCc2coc(-c3cccc(Cl)c3)n2)n[nH]1,inactive
9,Cc1cc2oc(=O)cc(CN3CCOCC3(C)C)c2cc1C(C)C,inactive
10,CCSc1oc(-c2ccccc2)nc1S(=O)(=O)c1ccc(C)cc1,inactive
11,COc1ccc2oc(C(=O)Nc3nc(C)cs3)c(C)c2c1,"inconclusive: 31.6 µM [inhibitor, partial curve, poor fit]"
12,COc1ccc(OC)c(NC(=O)c2cc3c(N4CCSCC4)nc(C)cn3n2)c1,inactive
13,O=C(NCCCN1CCCc2ccccc21)c1ccc(N2CC3CC(C2)[C@H]2CCCC(=O)N2C3)nc1 (stereo partly specified),"inconclusive: 12.6 µM [inhibitor, partial curve]"
14,CC(C)c1ccc(S(=O)(=O)c2cnc(SCC(=O)Nc3ccc4c(c3)OCCO4)[nH]c2=O)cc1,inactive
15,c1ccc([C@@H]2CN(C3CCOCC3)C[C@H]2COc2cccnc2)nc1,"inconclusive: 5.01 µM [inhibitor, full curve]"
16,O=C(c1cc2ccccc2oc1=O)N1CCCc2ccccc21,inactive
17,CC(=O)c1ccc(NC(=O)C(C)Sc2nc3nc(C)cc(C)c3c(=O)[nH]2)cc1 (stereo unspecified),inactive
18,Cc1nnc([C@H]2CCN(c3ccc(C#N)cn3)C2)o1,"inconclusive: 31.6 µM [inhibitor, partial curve]"
19,Cc1cc(C(=O)NCc2ccncc2)c2c(C3CCNC3)noc2n1 (stereo unspecified),"inconclusive: 89.1 µM [inhibitor, partial curve, poor fit]"
20,CCOc1ccc(CCNC(=O)c2nn(C)c3c2CSc2ccccc2-3)cc1,"inconclusive: 28.2 µM [inhibitor, partial curve, poor fit]"
21,COc1cc(C(=O)NNC(=S)NC(=O)c2ccc3c(c2)OCO3)cc(OC)c1OC,"inconclusive: 35.5 µM [inhibitor, single point]"
22,COc1cccc(CNC(=O)CSc2nc(-c3ccccc3C)nc3cc(=O)[nH]n23)c1,inactive
23,CN(C)CCNC(=O)c1ccc(-c2nn(C)c(=O)c3ccccc23)cc1,"inconclusive: 1 µM [inhibitor, full curve, poor fit]"
